Reference: the supplement of paper PMC4967469
By IC50 is meant the dose at which the fit gives 50% viability; a limit (>, <) means that the fit lies beyond the doses tested. The AUC spans the tested range (256-fold, ending at the top dose) of the same fit; it is 1 without any effect and falls as sensitivity rises. For part of these data: An inferred top dose was derived from the fitted curves, not read from the paper.

Assays:
Assay in all cases: Viability of human cancer cell lines after 72 h of drug (GDSC screen)
PD-173074 = compound: CCN(CC)CCCCNc1ncc2cc(-c3cc(OC)cc(OC)c3)c(NC(=O)NC(C)(C)C)nc2n1 [PD-173074]; details: top dose 2 µM; top dose inferred
Experimental: (§1)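 Human cancer cell lines in 384-well plates, medium with 10% serum, drug for 72 h over a 256-fold dose range (nine 2-fold or five 4-fold steps up to the top dose). Adherent lines were fixed and stained with the nucleic acid dye Syto60, suspension lines read with resazurin; signal relative to control wells, capped at 0 and 100%. One two-parameter sigmoid per drug and line, fitted in a mixed model over all curves with the slope shared within a line.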

SB590885 = compound: CN(C)CCOc1ccc(-c2nc(-c3ccncc3)c(-c3ccc4c(c3)CC/C4=N\O)[nH]2)cc1 [SB590885]; details: top dose 5 µM; top dose inferred
Experimental: as §1

Lapatinib = compound: CS(=O)(=O)CCNCc1ccc(-c2ccc3ncnc(Nc4ccc(OCc5cccc(F)c5)c(Cl)c4)c3c2)o1 [Lapatinib]; details: top dose 2 µM
Experimental: as §1

TGX221 = compound: Cc1cc(C(C)Nc2ccccc2)c2nc(N3CCOCC3)cc(=O)n2c1 [TGX221]; details: top dose 10 µM
Experimental: as §1

Cell Line	AUC (PD-173074)	IC50 (PD-173074)	AUC (SB590885)	IC50 (SB590885)	AUC (Lapatinib)	IC50 (Lapatinib)	AUC (TGX221)	IC50 (TGX221)
SH-4 (melanoma, adherent)	0.972	> 2000 nM	0.631	881 nM	0.967	> 2000 nM	0.947	> 10000 nM
SHP-77 (small cell lung carcinoma, semi-adherent)	0.991	> 2000 nM	0.99	> 5000 nM	0.979	> 2000 nM	0.983	> 10000 nM
SIMA (neuroblastoma, adherent)	0.976	> 2000 nM	0.985	> 5000 nM	0.981	> 2000 nM	0.976	> 10000 nM
SJSA-1 (bone, adherent)	0.984	> 2000 nM	0.929	> 5000 nM	0.964	> 2000 nM	0.931	> 10000 nM
SK-ES-1 (Ewing sarcoma, semi-adherent)	0.944	> 2000 nM	0.961	> 5000 nM	0.984	> 2000 nM	0.984	> 10000 nM
SK-LMS-1 (soft tissue, adherent)	0.987	> 2000 nM	0.987	> 5000 nM	0.937	> 2000 nM	0.932	> 10000 nM
SK-MEL-1 (melanoma, suspension)	0.993	> 2000 nM	0.875	3810 nM	0.989	> 2000 nM	0.985	> 10000 nM
SK-MM-2 (myeloma, suspension)	0.987	> 2000 nM	0.987	> 5000 nM	0.985	> 2000 nM	0.983	> 10000 nM
SK-N-FI (neuroblastoma, adherent)	0.989	> 2000 nM	0.99	> 5000 nM	0.99	> 2000 nM	0.989	> 10000 nM
SK-PN-DW (Ewing sarcoma, adherent)	0.964	> 2000 nM	0.961	> 5000 nM	0.986	> 2000 nM	0.965	> 10000 nM
SKM-1 (haematopoietic neoplasm, suspension)	0.778	900 nM	0.972	> 5000 nM	0.965	> 2000 nM	0.984	> 10000 nM
SLVL (B-cell lymphoma, suspension)	0.962	> 2000 nM	0.986	> 5000 nM	0.985	> 2000 nM	0.985	> 10000 nM
SNB75 (glioma, adherent)	0.963	> 2000 nM	0.972	> 5000 nM	0.94	> 2000 nM	0.827	> 10000 nM
SNU-C1 (large intestine, suspension)	0.947	> 2000 nM	0.98	> 5000 nM	0.975	> 2000 nM	0.96	> 10000 nM
SR (lymphoid neoplasm, suspension)	0.889	1880 nM	0.92	> 5000 nM	0.97	> 2000 nM	0.98	> 10000 nM
ST486 (Burkitt lymphoma, suspension)	0.978	> 2000 nM	0.989	> 5000 nM	0.978	> 2000 nM	0.987	> 10000 nM
SU-DHL-4 (B-cell lymphoma, suspension)	0.997	> 2000 nM	0.997	> 5000 nM	0.997	> 2000 nM	0.914	7060 nM
SU-DHL-6 (B-cell lymphoma, suspension)	0.994	> 2000 nM	0.995	> 5000 nM	0.988	> 2000 nM	0.587	1020 nM
SU-DHL-8 (B-cell lymphoma, suspension)	0.984	> 2000 nM	0.979	> 5000 nM	0.93	> 2000 nM	0.976	> 10000 nM
SU-DHL-16 (B-cell lymphoma, suspension)	0.995	> 2000 nM	0.996	> 5000 nM	0.991	> 2000 nM	0.983	> 10000 nM
SUP-B15 (lymphoblastic leukaemia, suspension)	0.953	> 2000 nM	0.974	> 5000 nM	0.977	> 2000 nM	0.972	> 10000 nM
SUP-HD1 (Hodgkin lymphoma, suspension)	0.968	> 2000 nM	0.985	> 5000 nM	0.975	> 2000 nM	0.955	> 10000 nM
SUP-M2 (anaplastic large cell lymphoma, suspension)	0.994	> 2000 nM	0.994	> 5000 nM	0.993	> 2000 nM	0.994	> 10000 nM
SUP-T1 (T-cell lymphoblastic leukaemia, suspension)	0.975	> 2000 nM	0.985	> 5000 nM	0.99	> 2000 nM	0.988	> 10000 nM
SW684 (fibrosarcoma, adherent)	0.981	> 2000 nM	0.983	> 5000 nM	0.98	> 2000 nM	0.78	6240 nM
SW954 (urogenital system, adherent)	0.938	> 2000 nM	0.982	> 5000 nM	0.868	1850 nM	0.977	> 10000 nM
SW962 (urogenital system, adherent)	0.72	619 nM	0.982	> 5000 nM	0.791	1150 nM	0.972	> 10000 nM
TC-71 (Ewing sarcoma, adherent)	0.989	> 2000 nM	0.988	> 5000 nM	0.991	> 2000 nM	0.992	> 10000 nM
TE-1 (oesophagus, adherent)	0.982	> 2000 nM	0.982	> 5000 nM	0.774	999 nM	0.9	> 10000 nM
TE-5 (oesophagus, adherent)	0.978	> 2000 nM	0.969	> 5000 nM	0.873	> 2000 nM	0.978	> 10000 nM
